Experimental findings from the antibiotic and cytotoxicity screens of Wong et al. (2023) are described below.

Molecules are shown by their SMILES. Some of the results follow.

The subject of this experiment is HSkMC (human skeletal muscle cells). Kind of experiment: cytotoxicity call (relative viability < 0.9). As to conditions: 10 µM.
Regarding `C[C@H](CO)N1C[C@H](C)[C@H](CN(C)C(=O)Nc2cccc3ccccc23)Oc2c(NC(=O)Nc3ccc4c(c3)OCO4)cccc2C1=O`, the cytotoxicity call is “inactive”.
The entry for `C/C=C/c1cnc2c(c1)C(=O)N([C@H](C)CO)C[C@H](C)[C@H](CN(C)S(=O)(=O)c1ccc(OC)cc1)O2` is “inactive”; for `C[C@H](CO)N1C[C@H](C)[C@H](CN(C)Cc2ccc(C(F)(F)F)cc2)OCCCC[C@H](C)Oc2ccc(NS(=O)(=O)c3cn(C)cn3)cc2C1=O` it is “inactive”.
The entry for `Nc1cccc(=O)[nH]1` is “inactive”; for `C[C@@H]1CN([C@H](C)CO)C(=O)Cc2cc(NC(=O)C3CC3)ccc2O[C@@H]1CN(C)Cc1ccc(C(=O)O)cc1` it is “inactive”; for `C[C@@H]1CN([C@H](C)CO)C(=O)c2cc(NC(=O)C3CC3)ccc2O[C@H]1CN(C)Cc1ccc(Oc2ccccc2)cc1` it is “inactive”.
The entry for `C[C@@H]1CCCCO[C@@H](CN(C)S(=O)(=O)c2cccs2)[C@@H](C)CN([C@@H](C)CO)C(=O)c2cc(NC(=O)Nc3ccccc3)ccc2O1` is “inactive”; for `Cc1ccc(S(=O)(=O)N(C)C[C@@H]2Oc3c(NC(=O)c4cnccn4)cccc3C(=O)N([C@@H](C)CO)C[C@H]2C)cc1` it is “inactive”; for `Cc1ccc(S(=O)(=O)N(C)C[C@H]2Oc3ccc(NC(=O)C4CC4)cc3C(=O)N([C@@H](C)CO)C[C@H]2C)cc1` it is “inactive”.
